# In all, about 340,000 compounds went through this assay and about 12,000 (3.5%) were called active. Inconclusive means that the source gave no clear call. Such entries were picked first, then a sample of the others. Calls follow the shape of the dose curve; as a rule, active = well fitted inhibition curve with a large enough effect; inconclusive = small, poorly fitted or top-dose-only effect, or another doubt; inactive = no such curve, though single readings can be large or run the other way. Potencies of inconclusive entries are left out as doubtful fits.
# Experiment: qHTS Assay for Inhibitors of Hepatitis C Virus (HCV)
# Settings: Huh7.5.1 HCVcc-Cre (HCVcc is cell-culture hepatitis C virus) infection, luciferase reporter, 44 h; series mostly up to 41.8 µM
# Procedure, shortened: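 HCVcc-Cre virus at an moi near 0.5 was added right after compound to cells cultured 4 h from seeding (1,000 cells/well). Luciferase activity was determined 44 h later, 15 min after substrate addition at RT.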
# Potency is read from the fitted curve at half-maximal effect; tags tell the direction and shape of the fitted curve.
row,Compound,Potency
1,Cc1ccc(OCCOCCN2CCN(C)CC2)c(C(C)(C)C)c1,"inconclusive [inhibitor, single point]"
2,O=[N+]([O-])c1ccc(Sc2cccc3cccnc23)cc1,inactive
3,COc1ccc(S(=O)(=O)Nc2ccccc2-c2nnn(CC(=O)Nc3ccccc3OC)n2)cc1,"inconclusive [inhibitor, full curve]"
4,COc1ccc(-n2nc(C(=O)NCC(=O)N3CCC(C)CC3)c3ccccc3c2=O)cc1,inactive
5,C=CCc1cc(Cl)ccc1OCCN1CC(C)OC(C)C1 (stereo unspecified),inactive
6,CCn1c(SCC(=O)Nc2ccc(C(=O)OC)cc2)nc2cccnc21,"inconclusive [inhibitor, partial curve]"
7,CCCOc1ccc(CNC(=O)Cn2ncc3ccccc32)cc1,inactive
8,Cc1ccccc1Nc1nc(N)nc(COC(=O)c2cccc(S(=O)(=O)N(C)c3ccccc3)c2)n1,"inconclusive [inhibitor, full curve]"
9,COc1cc(N=c2ssnc2Cl)c(OC)cc1Cl,"inconclusive [inhibitor, full curve]"
10,N=c1n(CCN2CCOCC2)c2ccccc2n1Cc1ccccc1Br,"inconclusive [inhibitor, partial curve]"
11,COc1ccc(OCc2cc(-c3ccc(Cl)cc3)no2)cc1,inactive
12,Cc1ccc(NC(=O)c2cc(=O)[nH]c3ccccc23)cc1,inactive
13,CSCc1cc(N2CCOCC2)nc(-c2ccccc2)n1,"inconclusive [inhibitor, full curve, poor fit]"
14,COc1ccc(C)cc1S(=O)(=O)Nc1cccc(Cl)c1,"inconclusive [inhibitor, single point]"
15,Nc1ccccc1C#Cc1cnccn1,"inconclusive [inhibitor, partial curve]"
16,Cc1cccc(C)c1NC(=O)CNC(=O)c1c(C)nn(-c2ccccc2)c1Cl,"inconclusive [inhibitor, single point]"
17,CN(Cc1ccccc1)CC1CCCN(CCc2ccccc2F)C1 (stereo unspecified),"inconclusive [inhibitor, single point]"
18,O=C(Nn1cnnc1)c1ccccc1Cl,inactive
19,CCCOc1ccc(Cc2nc(N)nc(N)n2)cc1,"inconclusive [inhibitor, full curve, poor fit]"
20,CCOc1c(OC)cccc1C(=O)NCC1(c2ccccc2)CCCC1,"inconclusive [inhibitor, single point]"
21,CC(C)c1ccc(-n2cnn(-c3ncccc3[N+](=O)[O-])c2=O)cc1,"inconclusive [inhibitor, single point]"

# — PubChem BioAssay AID651820 (National Center for Advancing Translational Sciences (NCATS), 2012)
